Laboratory results as given in the supplement of paper PMC8792480.
This is one part of the list. Repeats are few or missing, and single values can be far off.

These compounds were tested on NCI-H460 (assay: cell-surface PD-L1 MFI ratio relative to radiation alone (isotype-subtracted); higher = higher PD-L1 surface expression). Conditions: inducer: radiation 8 Gy; 10 µM; 24 h.
Description: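 A549 and H460 NSCLC cells were treated with each library drug at 10 uM, then with radiation (8 Gy) or cisplatin (4 uM), and incubated for 24 h. Cell-surface PD-L1 was measured by flow cytometry as an MFI ratio: (MFI drug+inducer - MFI isotype)/(MFI inducer alone - MFI isotype). Hits were defined as ratio < 0.75.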
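Also: surface PD-L1 on NSCLC cells stained with a PE-labelled anti-human PD-L1 antibody before flow cytometry, screening a library of roughly two hundred mostly kinase and epigenetic inhibitors.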

Structure (SMILES)	cell-surface PD-L1 MFI ratio
CN1CCN(c2ccc([N+](=O)[O-])c3no[n+]([O-])c23)CC1	inactive: 1.29
COC(=O)[C@@H](N)CCCNC(=N)N[N+](=O)[O-]	inactive: 1.07
COc1cc([C@@H]2c3cc4c(cc3[C@H](O)[C@H]3COC(=O)[C@@H]23)OCO4)cc(OC)c1OC [Picropodophyllin (PPP)]	inactive: 1.8
